Measured values from the supplement of paper PMC4166925.
± gives the standard deviation of the averaged measurements. The full ranking holds about 33,000 sequences; the median of “E-score (dimensionless, -0.5 to 0.5)” is about -0.049, and the highest 2% start at about 0.37. The list shows a part of the results.

test system: T1, PmTbr T-box DNA-binding domain (GST fusion); assay: PBM E-score of 8-mer (E-score (dimensionless, -0.5 to 0.5)); Tbr is Tbrain of the sea star Patiria miniata (Pm) or the sea urchin Strongylocentrotus purpuratus (Sp); higher = stronger binding preference; most listed sequences are background and not binding sites; conditions: the construct has about 5 more residues each side
T1 sequence: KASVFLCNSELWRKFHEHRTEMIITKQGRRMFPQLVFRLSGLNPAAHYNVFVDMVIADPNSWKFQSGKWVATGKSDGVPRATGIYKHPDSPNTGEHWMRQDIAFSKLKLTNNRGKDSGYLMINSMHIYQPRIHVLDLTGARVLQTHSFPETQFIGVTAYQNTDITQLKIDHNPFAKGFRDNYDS
Method in brief: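 GST-fused Tbr T-box DNA-binding domains (the whole T-box plus about five flanking residues) were expressed in BL21 E. coli at 20 °C and purified by glutathione affinity chromatography. Universal Agilent oligonucleotide arrays were made double-stranded by primer extension, incubated with 200 nM protein in PBS (pH 7.5), then scanned and quantified. Every ungapped 8-mer was scored from probe intensities. The Universal PBM Analysis Suite gave each word an enrichment E-score, averaged over duplicate arrays.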

| Sequence | PBM E-score of 8-mer |
| --- | --- |
| CCGGGCCC | -0.0837 ± 0.077 |
| AGCACGTC | 0.19 ± 0.017 |
| ACGGCGGA | -0.168 ± 0.031 |
| CACGGTTA | 0.00239 ± 0.015 |
| CAAATTCC | 0.0365 ± 0.027 |
| CCATAGAA | -0.00586 ± 0.0026 |
| AACATCAC | 0.179 ± 0.025 |
| GGAATCGA | -0.0922 ± 0.025 |
| GTATCACA | 0.27 ± 0.019 |
| TTACAGAA | -0.093 ± 0.056 |
| AGTCGTGG | -0.0635 ± 0.048 |
| GAACAAAC | -0.128 ± 0.055 |
| ATACACAC | 0.158 ± 0.025 |
| ACAGTATG | 0.086 ± 0.1 |
| AGTCCACA | 0.153 ± 0.065 |
| CACTTCCA | 0.351 ± 0.048 |
| AGCGCCTC | 0.273 ± 0.033 |
| CATATAAC | -0.104 ± 0.043 |
| ACCCCACT | 0.0317 ± 0.038 |
| CGGGTTCA | 0.0392 ± 0.03 |
| AAATGTAT | -0.167 ± 0.056 |
| GGTCTTCA | -0.0677 ± 0.014 |
| CAAGCCGA | -0.114 ± 0.064 |
| AAGCACAG | -0.192 ± 0.079 |
| AACATTAT | -0.133 ± 0.0017 |

| Sequence | PBM E-score of 8-mer |
| --- | --- |
| CAGATGTA | -0.0221 ± 0.013 |
| GGGGATAA | -0.177 ± 0.061 |
| AAAGCAAC | 0.00449 ± 0.025 |
| AACAGTCG | 0.119 ± 0.029 |
| TCTAGCCA | -0.165 ± 0.016 |
| CCCTTCGC | 0.0769 ± 0.021 |
| ACTCCGGG | 0.00388 ± 0.021 |
| GCCAAGTA | -0.0151 ± 0.041 |
| CGCTACTA | 0.0835 ± 0.085 |
| GCGCTGTA | 0.161 ± 0.0023 |
| GCACGAAA | -0.0162 ± 0.018 |
| ATTCGTGA | 0.138 ± 0.054 |
| ACATTGCG | 0.0804 ± 0.046 |
| AACACCCA | 0.348 ± 0.029 |
| ATCATATC | -0.0297 ± 0.00054 |
| GACAATGA | 0.17 ± 0.063 |
| GAGTGCCA | 0.242 ± 0.0057 |
| ATAGAGAT | -0.0802 ± 0.0069 |
| GCAGCCGA | -0.05 ± 0.043 |
| ATCAACGA | -0.0116 ± 0.013 |
| CAGGACAC | 0.15 ± 0.08 |
| TATAATCA | -0.0352 ± 0.059 |
| AAATATAT | -0.0943 ± 0.13 |
| AACAACCG | -0.0792 ± 0.069 |
| CGCAAAAA | 0.169 ± 0.015 |

| Sequence | PBM E-score of 8-mer |
| --- | --- |
| CAAGAATC | -0.114 ± 0.019 |
| TGCTGACA | 0.217 ± 0.048 |
| CCCTGCGG | -0.122 ± 0.032 |
| AACACTCT | 0.338 ± 0.034 |
| AAAAGTGG | 0.107 ± 0.0099 |
| ACAATGTC | -0.048 ± 0.0089 |
| AGTACTAT | -0.14 ± 0.0032 |
| CCAAATGC | -0.133 ± 0.013 |
| ATTACTCA | 0.103 ± 0.035 |
| ACTATGCC | -0.0992 ± 0.096 |
| TCGGGTCA | -0.0478 ± 0.1 |
| CGCTATAA | 0.164 ± 0.045 |
| AAGCGTGT | 0.235 ± 0.017 |
| ATCCGCCG | -0.161 ± 0.0068 |
| AGTTGTTA | 0.388 ± 0.011 |
| AGCCAGTG | -0.234 ± 0.027 |
| AGTTAACC | -0.135 ± 0.015 |
| AGGAGCAT | -0.125 ± 0.048 |
| CGAGACGC | -0.126 ± 0.029 |
| AATACATT | -0.0798 ± 0.037 |
| CGCATAGA | -0.0835 ± 0.0052 |
| CACTTGAA | 0.115 ± 0.098 |
| AAACGCTT | -0.09315 ± 2.8e-05 |
| TCTTAACA | 0.187 ± 0.027 |
| CCCGATGA | -0.0463 ± 0.07 |

| Sequence | PBM E-score of 8-mer |
| --- | --- |
| TATGGCGA | 0.00654 ± 0.026 |
| ATAGAGAA | -0.171 ± 0.047 |
| ACAGGCAC | 0.0731 ± 0.097 |
| CAGTCAAA | -0.0874 ± 0.11 |
| CTAATCGA | -0.231 ± 0.005 |
| AATACCGA | -0.134 ± 0.016 |
| ACTCTGAA | -0.179 ± 0.023 |
| CGTGACTA | 0.0654 ± 0.0058 |
| CAATGCAG | -0.227 ± 0.0046 |
| AGATAAGA | -0.171 ± 0.012 |
| CTTACAGA | 0.0993 ± 0.0083 |
| AGCGCAGC | -0.1817 ± 0.001 |
| ACGTAGGC | -0.00647 ± 0.049 |
| AGATACCG | -0.182 ± 0.024 |
| GGCGTTAC | 0.312 ± 0.03 |
| ACCTTAGG | 0.016 ± 0.015 |
| ACGAAGGG | -0.218 ± 0.0031 |
| CCGTCACA | 0.325 ± 0.024 |
| TACTTTCA | 0.0461 ± 0.077 |
| CTTACATA | -0.124 ± 0.016 |
| CAATCGTC | 0.0177 ± 0.056 |
| AAAGCTCT | -0.13 ± 0.035 |
| AACCTATC | -0.165 ± 0.17 |
| AGCGGAGG | -0.135 ± 0.0056 |
| CTTGGCTC | -0.202 ± 0.04 |

| Sequence | PBM E-score of 8-mer |
| --- | --- |
| CCCCCTTA | -0.343 ± 0.012 |
| AGCTTGAC | -0.208 ± 0.03 |
| GAATCACA | 0.232 ± 0.005 |
| CCCTACTC | -0.134 ± 0.033 |
| AATCTACA | 0.0314 ± 0.048 |
| AGTGACAC | 0.44 ± 0.0087 |
| CGCTTAAC | 0.0623 ± 0.0075 |
| CAGACGAG | -0.189 ± 0.017 |
| CCGCGCAG | -0.0277 ± 0.018 |
| CCGTATCG | 0.0224 ± 0.023 |
| GGGCCACA | 0.0589 ± 0.039 |
| ATTCGCGC | 0.39 ± 0.021 |
| CCGTCGTC | 0.047 ± 0.066 |
| ATTGAATG | -0.259 ± 0.011 |
| GACCGATC | -0.0299 ± 0.1 |
| AAGGTCCA | -0.146 ± 0.026 |
| GTGTTGAA | 0.4 ± 0.013 |
| CATAGGTC | -0.25 ± 0.059 |
| GGGCCCCA | -0.215 ± 0.011 |
| AGAAGCCC | -0.257 ± 0.071 |
| CGCAGACG | -0.0666 ± 0.0077 |
| CAAGTACG | 0.0658 ± 0.027 |
| ATCCTGCA | -0.237 ± 0.013 |
| AGTCCTCA | -0.215 ± 0.0072 |
| GTCCCCAC | -0.0774 ± 0.077 |

| Sequence | PBM E-score of 8-mer |
| --- | --- |
| GAGTGGTA | 0.0277 ± 0.058 |
| ATGTCAAT | 0.0294 ± 0.054 |
| AGCCTGCG | -0.0619 ± 0.068 |
| AATCGAAC | 0.0204 ± 0.043 |
| ATCTTCGG | -0.149 ± 0.0024 |
| GTTACAAC | -0.0431 ± 0.044 |
| AAACTAAT | -0.257 ± 0.079 |
| ATTTGGGA | -0.249 ± 0.014 |
| ACGTGCCT | -0.0451 ± 0.016 |
| ATCCCATC | -0.245 ± 0.065 |
| GACTAGAA | -0.24 ± 0.018 |
| CTTGGGTA | -0.153 ± 0.041 |
| ATCGGCGG | 0.0203 ± 0.032 |
| ACATCAGC | -0.00705 ± 0.011 |
| CGGACCCC | -0.3 ± 0.013 |
| CTTCGAAC | -0.0549 ± 0.054 |
| TATAGGAA | -0.174 ± 0.06 |
| GACTCACC | 0.018 ± 0.085 |
| GCCACTCA | 0.138 ± 0.087 |
| CAGTTGTC | 0.253 ± 0.025 |
| GTATCAGA | -0.104 ± 0.043 |
| GGACTGCA | -0.0271 ± 0.032 |
| AGTACCCC | -0.0951 ± 0.01 |
| AGGATGGA | -0.248 ± 0.039 |
| ATTGCAAT | -0.0891 ± 0.15 |

| Sequence | PBM E-score of 8-mer |
| --- | --- |
| ATCGACAA | 0.222 ± 0.036 |
| AGCATGTC | -0.107 ± 0.053 |
| GGATAACA | 0.2 ± 0.021 |
| ACGTTCAA | -0.102 ± 0.12 |
| ATATTAGG | -0.156 ± 0.029 |
| ATCAAAGA | -0.168 ± 0.0017 |
| GATTCGGC | -0.0711 ± 0.029 |
| CCCTAGAG | 0.0144 ± 0.04 |
| GCCTATCC | -0.2 ± 0.0061 |
| TAACGACA | 0.174 ± 0.015 |
| GTAGCTCA | -0.175 ± 0.094 |
| AAATACAT | -0.0833 ± 0.0057 |
| ACAACTGC | 0.2139 ± 0.0011 |
| AGGGACCT | -0.0715 ± 0.077 |
| ATGATCTG | -0.00895 ± 0.0095 |
| CGCTGTGC | -0.062 ± 0.015 |
| CAACATCC | 0.0179 ± 0.05 |
| CGACAAGC | 0.193 ± 0.027 |
| CCGGGAGC | -0.208 ± 0.053 |
| AGGCTGAG | -0.0655 ± 0.066 |
| CCAAAGTA | -0.17 ± 0.014 |
| GAAGTTAA | 0.0494 ± 0.064 |
